In the supplement of paper PMC8728848:
This is one part of the list.

Columns and labels:
Assay in all cases: glycan array binding signal (z-score within array); higher = stronger binding
Details in all cases: glycan notation: IUPAC condensed, linker removed; mutation: H84T
Fuc(a1-2)Gal = biological target: Fuc(a1-2)Gal
How it was run: (§1)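 Glycan array data came from 3228 arrays in the Consortium for Functional Glycomics database, and only arrays with an available protein sequence were kept. Glycan names were put into IUPAC-condensed notation, and columns mapping to the same glycan were averaged. The binding signal is a within-array Z-score, averaged across arrays of one protein sequence run at different concentrations or buffers and across linkers. A negative Z-score can be read as non-binding.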

Fuc(a1-2)Gal(b1-3)GalNAc = biological target: Fuc(a1-2)Gal(b1-3)GalNAc
How it was run: as §1

[1] = biological target: Fuc(a1-2)Gal(b1-3)GalNAc(a1-3)[Fuc(a1-2)]Gal(b1-4)Glc
How it was run: as §1

[2] = biological target: Fuc(a1-2)Gal(b1-3)GalNAc(a1-3)[Fuc(a1-2)]Gal(b1-4)GlcNAc
How it was run: as §1

[3] = biological target: Fuc(a1-2)Gal(b1-3)GalNAc(b1-3)Gal
How it was run: as §1

[4] = biological target: Fuc(a1-2)Gal(b1-3)GalNAc(b1-3)Gal(a1-4)Gal(b1-4)Glc
How it was run: as §1

[5] = biological target: Fuc(a1-2)Gal(b1-3)GalNAc(b1-4)[Neu5Ac(a2-3)]Gal(b1-4)Glc
How it was run: as §1

Fuc(a1-2)Gal(b1-3)GlcNAc = biological target: Fuc(a1-2)Gal(b1-3)GlcNAc
How it was run: as §1

[6] = biological target: Fuc(a1-2)Gal(b1-3)GlcNAc(b1-2)Man(a1-3)[Fuc(a1-2)Gal(b1-3)GlcNAc(b1-2)Man(a1-6)]Man(b1-4)GlcNAc(b1-4)GlcNAc
How it was run: as §1

[7] = biological target: Fuc(a1-2)Gal(b1-3)GlcNAc(b1-2)Man(a1-3)[Fuc(a1-2)Gal(b1-3)GlcNAc(b1-2)Man(a1-6)]Man(b1-4)GlcNAc(b1-4)[Fuc(a1-6)]GlcNAc
How it was run: as §1

[8] = biological target: Fuc(a1-2)Gal(b1-3)GlcNAc(b1-3)Gal(b1-4)Glc
How it was run: as §1

[9] = biological target: Fuc(a1-2)Gal(b1-3)GlcNAc(b1-3)GalNAc
How it was run: as §1

[10] = biological target: Fuc(a1-2)Gal(b1-3)GlcNAc(b1-3)[Fuc(a1-2)Gal(b1-3)GlcNAc(b1-6)]GalNAc
How it was run: as §1

[11] = biological target: Fuc(a1-2)Gal(b1-3)GlcNAc(b1-3)[Gal(b1-4)GlcNAc(b1-6)]Gal(b1-4)Glc
How it was run: as §1

[12] = biological target: Fuc(a1-2)Gal(b1-3)GlcNAc(b1-3)[Neu5Ac(a2-6)Gal(b1-4)GlcNAc(b1-6)]Gal(b1-4)Glc
How it was run: as §1

[13] = biological target: Fuc(a1-2)Gal(b1-3)GlcNAc6S
How it was run: as §1

[14] = biological target: Fuc(a1-2)Gal(b1-3)[Fuc(a1-4)]GlcNAc
How it was run: as §1

[15] = biological target: Fuc(a1-2)Gal(b1-3)[Fuc(a1-4)]GlcNAc(b1-2)Man(a1-3)[Fuc(a1-2)Gal(b1-3)[Fuc(a1-4)]GlcNAc(b1-2)Man(a1-3)]Man(b1-4)GlcNAc(b1-4)GlcNAc
How it was run: as §1

[16] = biological target: Fuc(a1-2)Gal(b1-3)[Fuc(a1-4)]GlcNAc(b1-2)Man(a1-3)[Fuc(a1-2)Gal(b1-3)[Fuc(a1-4)]GlcNAc(b1-2)Man(a1-6)]Man(b1-4)GlcNAc(b1-4)[Fuc(a1-6)]GlcNAc(b1-4)[Fuc(a1-6)]GlcNAc
How it was run: as §1

[17] = biological target: Fuc(a1-2)Gal(b1-3)[Fuc(a1-4)]GlcNAc(b1-3)[Fuc(a1-3)[Gal(b1-4)]GlcNAc(b1-6)]Gal(b1-4)Glc
How it was run: as §1

[18] = biological target: Fuc(a1-2)Gal(b1-3)[Fuc(a1-4)]GlcNAc(b1-3)[Gal(b1-4)GlcNAc(b1-6)]Gal(b1-4)Glc
How it was run: as §1

[19] = biological target: Fuc(a1-2)Gal(b1-4)Fuc(a1-3)]GlcNAc(b1-2)Man(a1-3)[Fuc(a1-2)Gal(b1-4)[Fuc(a1-3)]GlcNAc(b1-2)Man(a1-6)]Man(b1-4)GlcNAc(b1-4)GlcNAc
How it was run: as §1

Fuc(a1-2)Gal(b1-4)Glc = biological target: Fuc(a1-2)Gal(b1-4)Glc
How it was run: as §1

Fuc(a1-2)Gal(b1-4)Glc6S = biological target: Fuc(a1-2)Gal(b1-4)Glc6S
How it was run: as §1

Fuc(a1-2)Gal(b1-4)GlcNAc = biological target: Fuc(a1-2)Gal(b1-4)GlcNAc
How it was run: as §1

[20] = biological target: Fuc(a1-2)Gal(b1-4)GlcNAc(b1-2)Man
How it was run: as §1

[21] = biological target: Fuc(a1-2)Gal(b1-4)GlcNAc(b1-2)Man(a1-3)[Fuc(a1-2)Gal(b1-4)GlcNAc(b1-2)Man(a1-6)]Man(b1-4)GlcNAc(b1-4)GlcNAc
How it was run: as §1

[22] = biological target: Fuc(a1-2)Gal(b1-4)GlcNAc(b1-2)Man(a1-3)[Fuc(a1-2)Gal(b1-4)GlcNAc(b1-2)Man(a1-6)]Man(b1-4)GlcNAc(b1-4)[Fuc(a1-6)]GlcNAc
How it was run: as §1

[23] = biological target: Fuc(a1-2)Gal(b1-4)GlcNAc(b1-2)[Fuc(a1-2)Gal(b1-4)GlcNAc(b1-4)]Man(a1-3)[Fuc(a1-2)Gal(b1-4)GlcNAc(b1-2)Man(a1-6)]Man(b1-4)GlcNAc(b1-4)GlcNAc
How it was run: as §1

[24] = biological target: Fuc(a1-2)Gal(b1-4)GlcNAc(b1-3)Gal(b1-4)GlcNAc
How it was run: as §1

B1: Banana lectin (Musa acuminata) (protein)
chain: MNGAIKVGAWGGNGGSAFDMGPAYRIISVKIFSGDVVDGVDVTFTYYGKTETRHYGGSGGTPHEIVLQEGEYLVGMAGEVANYTGAVVLGKLGFSTNKKAYGPFGNTGGTPFSLPIAAGKISGFFGRGGKFLDAIGVYLEPLEHHHHHH
glycan array binding signal (z-score) (Fuc(a1-2)Gal): -0.159 | glycan array binding signal (z-score) (Fuc(a1-2)Gal(b1-3)GalNAc): -0.177 | glycan array binding signal (z-score) [1]: -0.171 | glycan array binding signal (z-score) [2]: -0.196 | glycan array binding signal (z-score) [3]: -0.187 | glycan array binding signal (z-score) [4]: -0.169 | glycan array binding signal (z-score) [5]: -0.166 | glycan array binding signal (z-score) (Fuc(a1-2)Gal(b1-3)GlcNAc): -0.164 | glycan array binding signal (z-score) [6]: 0.405 | glycan array binding signal (z-score) [7]: -0.026 | glycan array binding signal (z-score) [8]: -0.177 | glycan array binding signal (z-score) [9]: -0.179 | glycan array binding signal (z-score) [10]: -0.148 | glycan array binding signal (z-score) [11]: -0.131 | glycan array binding signal (z-score) [12]: -0.138 | glycan array binding signal (z-score) [13]: -0.209 | glycan array binding signal (z-score) [14]: -0.144 | glycan array binding signal (z-score) [15]: -0.166 | glycan array binding signal (z-score) [16]: -0.154 | glycan array binding signal (z-score) [17]: -0.189 | glycan array binding signal (z-score) [18]: -0.172 | glycan array binding signal (z-score) [19]: -0.094 | glycan array binding signal (z-score) (Fuc(a1-2)Gal(b1-4)Glc): -0.2 | glycan array binding signal (z-score) (Fuc(a1-2)Gal(b1-4)Glc6S): -0.176 | glycan array binding signal (z-score) (Fuc(a1-2)Gal(b1-4)GlcNAc): -0.139 | glycan array binding signal (z-score) [20]: -0.166 | glycan array binding signal (z-score) [21]: 0.195 | glycan array binding signal (z-score) [22]: 0.094 | glycan array binding signal (z-score) [23]: 0.043 | glycan array binding signal (z-score) [24]: -0.178
